102 sequences from a collection of fitness landscapes (doi:10.1038/s41467-024-54723-y) can be followed below.

The full ranking holds about 18,000 sequences; the median of “TetR repression strength (sort-seq, GFP reporter)” is about 0.23, and the highest 2% start at about 0.68. This is one part of the list.

The target in the experiment is TetR (class B, Tn10) (UniProt P04483). The experiment is described as follows: TetR repression strength (sort-seq, GFP reporter) (relative to tetO2 = 1); higher = stronger repression. The settings on record: E. coli. The procedure, abridged: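 E. coli SIG10-MAX carried a low-copy plasmid library with eight randomized operator positions between a constitutive promoter and sfGFP, with TetR constitutively expressed. Cells grew 5 h at 37 °C in LB with 50 µg/mL chloramphenicol, then 10^6 cells were FACS-sorted into 13 fluorescence bins, each Illumina-sequenced. Repression strength is the top bin index plus one minus the read-weighted mean bin, divided by the wild-type operator value. Three independent transformations; variants with ≥30 reads in all replicates and CV ≤0.5 were averaged.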
Sequence of UniProt P04483 (P04483 whole entry): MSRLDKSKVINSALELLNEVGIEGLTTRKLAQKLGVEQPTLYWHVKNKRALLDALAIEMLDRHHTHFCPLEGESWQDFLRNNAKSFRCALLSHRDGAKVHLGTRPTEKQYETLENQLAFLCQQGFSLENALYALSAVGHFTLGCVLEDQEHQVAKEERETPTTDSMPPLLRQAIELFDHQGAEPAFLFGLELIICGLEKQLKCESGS
In turn, TCCCAGGCAGTGGCCGAGA yielded a TetR repression strength of 0.168.
TCCCCCTAAGTTATAGAGA gave a TetR repression strength of 0.525.
For the sequence TCCCTTTGAGTCATTGAGA, the TetR repression strength amounted to 0.0867.
In turn, TCCCAACCAGTGGTGGAGA gave a TetR repression strength of 0.177.
Turning to TCCCATATAGTATGGGAGA, the TetR repression strength came out at 0.0452.
Next, TCCCATACAGTTTGTGAGA: 0.294.
TCCCGTGGAGTAGTGGAGA: the TetR repression strength amounted to 0.102.
On to TCCCTAGGAGTGGTCGAGA, for which the TetR repression strength amounted to 0.402.
Next, TCCCCGGTAGTTTGCGAGA: 0.971; TCCCAATGAGTCGCCGAGA: 0.308.
Regarding TCCCTATCAGTGAAAGAGA, the TetR repression strength is 0.784.
The sequence TCCCCTAGAGTGTAGGAGA showed a TetR repression strength of 0.252.
TCCCGTTTAGTCGTGGAGA: the TetR repression strength came out at 0.225.
Sequence TCCCAGACAGTGACAGAGA came in with a TetR repression strength of 0.207.
Next, TCCCGAACAGTGGGGGAGA: 0.367; TCCCGTCTAGTACGGGAGA: 0.189.
Turning to TCCCATCCAGTGATGGAGA, the TetR repression strength is 0.248.
In turn, TCCCAATTAGTTGTGGAGA showed a TetR repression strength of 0.403.
Turning to TCCCGAGGAGTCGCGGAGA, the TetR repression strength amounted to 0.199.
As to TCCCGTGTAGTAATTGAGA, the TetR repression strength was 0.227.
Next, TCCCAGTCAGTACGGGAGA: 0.552; TCCCGACGAGTGTGGGAGA: 0.138; TCCCTTGGAGTTGATGAGA: 0.346.
For TCCCTGGGAGTTCGCGAGA, the TetR repression strength worked out at 0.205.
With TCCCTGAAAGTGAACGAGA the figure was 0.423; with TCCCGATCAGTCAGCGAGA, 0.216; with TCCCGGGCAGTGACCGAGA, 0.415.
Take TCCCAGCGAGTGATGGAGA: the TetR repression strength was found to be 0.255.
Sequence TCCCGGTTAGTCATGGAGA gave a TetR repression strength of 0.275.
With TCCCCTTGAGTGGGAGAGA the figure was 0.279; with TCCCAGTGAGTTCAAGAGA, 0.338.
Regarding TCCCTTCCAGTTACCGAGA, the TetR repression strength was found to be 0.351.
On to TCCCCTTGAGTAAAGGAGA, for which the TetR repression strength was 0.242.
The sequence TCCCCTGAAGTGCGTGAGA displayed a TetR repression strength of 0.111.
As to TCCCAATTAGTGATAGAGA, the TetR repression strength stood at 0.605.
Sequence TCCCTATGAGTGGGAGAGA showed a TetR repression strength of 0.363.
On to TCCCAGGGAGTAGGGGAGA, for which the TetR repression strength came to 0.204.
TCCCTCTGAGTCTTGGAGA came in with a TetR repression strength of 0.159.
TCCCCAGCAGTGGTAGAGA yielded a TetR repression strength of 0.234.
With TCCCCGGTAGTGTGTGAGA, the TetR repression strength stood at 0.303.
For the sequence TCCCAATGAGTTATCGAGA, the TetR repression strength is 0.368.
In the case of TCCCGGTTAGTTACAGAGA, the TetR repression strength was 0.268.
Regarding TCCCGACGAGTAGTCGAGA, the TetR repression strength was 0.0891.
With TCCCAGGTAGTGGAAGAGA, the TetR repression strength turned out to be 0.386.
TCCCGAAAAGTTAGTGAGA showed a TetR repression strength of 0.417.
In turn, TCCCAGGTAGTTTATGAGA had a TetR repression strength of 0.12.
In turn, TCCCGTCTAGTATCGGAGA had a TetR repression strength of 0.308.
Next, TCCCAGAGAGTAGACGAGA: 0.217; TCCCCATCAGTGGTGGAGA: 0.127; TCCCTTAGAGTGCAAGAGA: 0.415.
TCCCTATCAGTGCCAGAGA showed a TetR repression strength of 0.743.
Next, TCCCCTTTAGTGGTAGAGA: 0.494; TCCCCAGCAGTTATGGAGA: 0.249.
TCCCGCCTAGTGATGGAGA displayed a TetR repression strength of 0.192.
TCCCCTCGAGTTGGGGAGA gave a TetR repression strength of 0.121.
For TCCCTACCAGTCGTCGAGA, the TetR repression strength came to 0.368.
In the case of TCCCTACAAGTGGGGGAGA, the TetR repression strength was determined as 0.166.
On to TCCCCCACAGTCCTAGAGA, for which the TetR repression strength is 0.412.
In turn, TCCCGATGAGTGCAAGAGA displayed a TetR repression strength of 0.504.
With TCCCGTGCAGTCCGTGAGA the figure was 0.202; with TCCCCTGCAGTGGATGAGA, 0.258; with TCCCGTGGAGTAGTCGAGA, 0.47.
As to TCCCGGAAAGTGATAGAGA, the TetR repression strength came to 0.329.
With TCCCGTGAAGTGGGTGAGA the figure was 0.243; with TCCCGGACAGTCACAGAGA, 0.0968.
In turn, TCCCGAGTAGTTTTAGAGA gave a TetR repression strength of 0.213.
Consider TCCCATACAGTGGGGGAGA, for which the TetR repression strength was 0.236.
With TCCCCACAAGTGGGAGAGA the figure was 0.182; with TCCCATCCAGTCGGGGAGA, 0; with TCCCTATAAGTTCATGAGA, 0.35.
For TCCCGCTGAGTCAGTGAGA, the TetR repression strength worked out at 0.204.
Take TCCCCATAAGTAAGCGAGA: the TetR repression strength was 0.53.
TCCCCTTGAGTGATCGAGA: the TetR repression strength turned out to be 0.192.
Sequence TCCCTCGTAGTGATGGAGA returned a TetR repression strength of 0.143.
Take TCCCTGATAGTGAACGAGA: the TetR repression strength is 0.211.
TCCCGTTGAGTGGCGGAGA registered a TetR repression strength of 0.237.
As for TCCCCCCGAGTCGTGGAGA, the TetR repression strength came out at 0.28.
TCCCACTGAGTGGAAGAGA returned a TetR repression strength of 0.282.
Turning to TCCCGAACAGTATAAGAGA, the TetR repression strength is 0.291.
With TCCCCGTCAGTGGCTGAGA, the TetR repression strength amounted to 0.395.
The sequence TCCCTGGAAGTAGGAGAGA returned a TetR repression strength of 0.242.
TCCCGAGGAGTAGCTGAGA registered a TetR repression strength of 0.139.
TCCCGGAGAGTTAATGAGA had a TetR repression strength of 0.225.
Take TCCCGGGTAGTCTATGAGA: the TetR repression strength is 0.
Take TCCCAGGTAGTGGGAGAGA: the TetR repression strength is 0.203.
In turn, TCCCCTATAGTCGGAGAGA gave a TetR repression strength of 0.175.
With TCCCCCCAAGTGCCAGAGA the figure was 0.415; with TCCCGCCAAGTCCCTGAGA, 0.389; with TCCCTATCAGTTAATGAGA, 0.655.
The sequence TCCCGTACAGTGGTGGAGA yielded a TetR repression strength of 0.195.
TCCCAGAGAGTACTCGAGA came in with a TetR repression strength of 0.276.
Turning to TCCCGGACAGTGTGAGAGA, the TetR repression strength stood at 1.2.
Sequence TCCCACAAAGTGGGTGAGA gave a TetR repression strength of 0.155.
With TCCCCTCGAGTACAAGAGA the figure was 0.58; with TCCCCTCGAGTGCTTGAGA, 0.289.
On to TCCCACGCAGTCCCTGAGA, for which the TetR repression strength is 0.23.
Take TCCCATATAGTAATTGAGA: the TetR repression strength turned out to be 0.168.
TCCCGCGGAGTAACGGAGA returned a TetR repression strength of 0.371.
The sequence TCCCGTAAAGTGGGAGAGA gave a TetR repression strength of 0.116.
Next, TCCCAGATAGTGTGCGAGA: 0.228; TCCCCGGTAGTAAGCGAGA: 0.445.
As to TCCCGGTCAGTGGGCGAGA, the TetR repression strength was found to be 0.335.
